{
  "source": "the supplement of paper PMC11369174",
  "about": "“Proteome-scale characterisation of motif-based interactome rewiring by disease mutations” (Molecular Systems Biology, 2024)",
  "experiment_in_all_cases": "mutation enrichment score (mutant vs wild-type peptide binding to bait); baits are purified protein domains named by gene / domain / UniProt id / residues; peptides come from disordered regions of human proteins; higher = mutation enhances binding relative to wild type",
  "key": {"EZR_FERM_1_P15311_2_295": {"biological_target": "EZR_FERM_1_P15311_2_295", "sequence (chain, as listed by the source)": "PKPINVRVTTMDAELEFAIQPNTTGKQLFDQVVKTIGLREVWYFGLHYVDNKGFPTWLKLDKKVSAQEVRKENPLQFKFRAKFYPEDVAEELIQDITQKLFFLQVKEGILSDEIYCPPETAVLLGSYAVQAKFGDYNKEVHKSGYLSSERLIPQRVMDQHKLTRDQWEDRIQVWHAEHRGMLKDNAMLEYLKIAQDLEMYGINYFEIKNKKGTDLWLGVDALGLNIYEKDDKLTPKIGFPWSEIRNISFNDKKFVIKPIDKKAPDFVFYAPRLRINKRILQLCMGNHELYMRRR", "conditions": "paper call: no_effect, wild-type window: …"}, "MSN_FERM_1_P26038_1_322": {"biological_target": "T1, MSN_FERM_1_P26038_1_322", "T1 chain": "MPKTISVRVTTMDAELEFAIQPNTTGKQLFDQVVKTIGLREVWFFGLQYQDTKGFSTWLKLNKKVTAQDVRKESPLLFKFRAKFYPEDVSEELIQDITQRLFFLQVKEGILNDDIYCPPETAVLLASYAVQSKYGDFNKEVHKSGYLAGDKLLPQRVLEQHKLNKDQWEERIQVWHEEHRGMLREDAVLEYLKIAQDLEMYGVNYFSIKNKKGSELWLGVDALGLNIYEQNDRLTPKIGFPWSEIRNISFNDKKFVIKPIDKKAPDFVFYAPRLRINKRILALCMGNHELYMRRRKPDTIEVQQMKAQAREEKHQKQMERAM", "conditions": "wild-type window: …"}, "RDX_FERM_1_P35241_5_295": {"biological_target": "T2, RDX_FERM_1_P35241_5_295", "T2 chain": "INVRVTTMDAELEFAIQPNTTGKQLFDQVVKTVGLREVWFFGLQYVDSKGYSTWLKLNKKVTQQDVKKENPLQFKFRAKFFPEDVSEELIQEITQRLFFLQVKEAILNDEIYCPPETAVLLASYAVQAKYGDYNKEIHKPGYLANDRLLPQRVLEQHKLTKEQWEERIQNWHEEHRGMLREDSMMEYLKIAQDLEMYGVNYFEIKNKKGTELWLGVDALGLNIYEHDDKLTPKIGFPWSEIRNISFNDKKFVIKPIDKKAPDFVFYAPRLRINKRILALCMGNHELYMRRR", "conditions": "wild-type window: …"}, "EPS15_EH__P42566_121_215": {"biological_target": "T3, EPS15_EH__P42566_121_215", "T3 chain": "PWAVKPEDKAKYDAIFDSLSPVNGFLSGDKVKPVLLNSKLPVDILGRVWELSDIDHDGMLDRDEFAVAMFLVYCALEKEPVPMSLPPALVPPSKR", "conditions": "wild-type window: …"}, "[1]": {"biological_target": "EPS8_SH3_1_Q12929_534_598 (clone: EPS8L1_SH3_1_Q12929_534_598)", "conditions": "paper call: no_effect, wild-type window: …"}, "[2]": {"biological_target": "T4, G3BP2_NTF2_1_Q9UN86_1_139", "T4 chain": "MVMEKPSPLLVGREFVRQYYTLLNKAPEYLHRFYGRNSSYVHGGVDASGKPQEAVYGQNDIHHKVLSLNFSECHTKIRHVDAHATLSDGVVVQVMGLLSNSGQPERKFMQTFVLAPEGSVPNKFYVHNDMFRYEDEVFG", "conditions": "number of wild-type / mutant comparisons summed (bounds the score): 6; paper call: diminished; wild-type window: …"}, "SHC_PH__P29353_149_317": {"biological_target": "T5, SHC_PH__P29353_149_317", "T5 chain": "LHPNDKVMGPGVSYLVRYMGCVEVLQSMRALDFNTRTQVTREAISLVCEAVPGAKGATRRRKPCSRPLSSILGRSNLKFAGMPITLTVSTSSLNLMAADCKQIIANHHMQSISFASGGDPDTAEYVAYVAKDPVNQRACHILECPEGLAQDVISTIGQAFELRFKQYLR", "conditions": "number of wild-type / mutant comparisons summed (bounds the score): 6; paper call: no_effect; wild-type window: …"}, "[3]": {"biological_target": "WDR5_WD_1234567_P61964_21_334", "conditions": "number of wild-type / mutant comparisons summed (bounds the score): 6; paper call: no_effect; wild-type window: …"}, "REPS1___Q96D71_226_314": {"biological_target": "REPS1___Q96D71_226_314", "conditions": "number of wild-type / mutant comparisons summed (bounds the score): 6; paper call: no_effect; wild-type window: …"}, "[4]": {"biological_target": "FKBP1A_full-length__P62942_1_108, P62942", "sequence (P62942 whole entry)": "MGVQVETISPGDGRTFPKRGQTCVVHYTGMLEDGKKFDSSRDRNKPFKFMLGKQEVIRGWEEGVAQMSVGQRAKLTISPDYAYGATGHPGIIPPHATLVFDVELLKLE", "conditions": "number of wild-type / mutant comparisons summed (bounds the score): 6; paper call: no_effect; wild-type window: …"}, "[5]": {"conditions": "number of wild-type / mutant comparisons summed (bounds the score): 10"}, "[6]": {"conditions": "number of wild-type / mutant comparisons summed (bounds the score): 6, paper call: no_effect"}, "[7]": {"conditions": "number of wild-type / mutant comparisons summed (bounds the score): 12, paper call: no_effect"}, "[8]": {"conditions": "number of wild-type / mutant comparisons summed (bounds the score): 5"}, "[9]": {"conditions": "number of wild-type / mutant comparisons summed (bounds the score): 6"}, "[10]": {"conditions": "number of wild-type / mutant comparisons summed (bounds the score): 6, paper call: enhanced"}},
  "note": "The list shows a part of the results. The data scatter; read single values as rough.",
  "data": [
    {"binder": "PAPEPPTQHSYTYNVSNLDVGQLSAPPPEEPSPPPSPLAPS", "note": "[R4904G R4904G]", "values": [
      {"measurement": "mutation enrichment score", "setting": "EZR_FERM_1_P15311_2_295; [5]", "value": 2},
      {"measurement": "mutation enrichment score", "setting": "MSN_FERM_1_P26038_1_322; [6]", "value": -0.19},
      {"measurement": "mutation enrichment score", "setting": "RDX_FERM_1_P35241_5_295; [7]", "value": -0.44}
    ]},
    {"binder": "LFVALQGCMDKGKELSGLGSPLKNPFGNAGLLLGEAGKQLR", "note": "[A490P A490P]", "values": [
      {"measurement": "mutation enrichment score", "setting": "EPS15_EH__P42566_121_215; [7]", "value": 0}
    ]},
    {"binder": "ESKVCNAVVTGLSSGQEYQFHVKAYNEKGKSDPRVLGVPVI", "note": "[R25211H R25211H]", "values": [
      {"measurement": "mutation enrichment score", "setting": "EZR_FERM_1_P15311_2_295; [8]", "value": 2},
      {"measurement": "mutation enrichment score", "setting": "MSN_FERM_1_P26038_1_322; [6]", "value": 4}
    ]},
    {"binder": "SPKESENALPIQVDYDAYDAEVFRLPGPSRAQCLTTCRSVR", "note": "[Q465E Q465E]", "values": [
      {"measurement": "mutation enrichment score", "setting": "[1]; [9]", "value": 3}
    ]},
    {"binder": "GHLEPTELLMNRAYLQSITPRGYSDSEERESMPRDGESEKE", "note": "[Q1119R Q1119R]", "values": [
      {"measurement": "mutation enrichment score", "setting": "EPS15_EH__P42566_121_215; [6]", "value": -3}
    ]},
    {"binder": "MNDFFHSFLIVFRVLCGEWIKTMWDCMEVAGQAMCLTVFMM", "note": "[E954K E954K]", "values": [
      {"measurement": "mutation enrichment score", "setting": "EZR_FERM_1_P15311_2_295; [5]", "value": 0}
    ]},
    {"binder": "PGGYNALRRMYTDIQEPMLNVAQEQFGGNPFASVGSSSSSG", "note": "[A282V A282V]", "values": [
      {"measurement": "mutation enrichment score", "setting": "EPS15_EH__P42566_121_215; [10]", "value": 6}
    ]},
    {"binder": "SEKAKNGRDTSLGSPKESENVLPIQVDYDAYDAQVFRLPGP", "note": "[A452V A452V]", "values": [
      {"measurement": "mutation enrichment score", "setting": "[1]; [9]", "value": 3}
    ]},
    {"binder": "INIRQGREQNKPDSSPLYIQDPFETSLNISKNVSQSQLQKF", "note": "[N478D N478D]", "values": [
      {"measurement": "mutation enrichment score", "setting": "EPS15_EH__P42566_121_215; number of wild-type / mutant comparisons summed (bounds the score): 12, paper call: diminished", "value": -8}
    ]},
    {"binder": "PHKGLDCYLDSLFDPVLSYGYADLEKPTAIAYRMKGGGQPG", "note": "[D2403Y D2403Y]", "values": [
      {"measurement": "mutation enrichment score", "setting": "EPS15_EH__P42566_121_215; [6]", "value": 1.7}
    ]},
    {"binder": "ALEQGSPPDISPYEVPPLADNPAVAHLHHHLPAQLALPHPP", "note": "[D76N D76N]", "values": [
      {"measurement": "mutation enrichment score", "setting": "[1]; number of wild-type / mutant comparisons summed (bounds the score): 12", "value": 0}
    ]},
    {"binder": "QGTTPDTTPARTPTEEGTPTGEQNPFLFQEGKLFEMTRSGA", "note": "[S3096G S3096G]", "values": [
      {"measurement": "mutation enrichment score", "setting": "EPS15_EH__P42566_121_215; [7]", "value": -1.3}
    ]},
    {"binder": "MDHEDFRACLISMGYDLGEAKFARIMTLVDPNGQGTVTFQS", "note": "[E793K E793K]", "values": [
      {"measurement": "mutation enrichment score", "setting": "EZR_FERM_1_P15311_2_295; [8]", "value": -4},
      {"measurement": "mutation enrichment score", "setting": "[2]", "value": -6},
      {"measurement": "mutation enrichment score", "setting": "MSN_FERM_1_P26038_1_322; [6]", "value": -2.9}
    ]},
    {"binder": "KKDLPLDTSDSSSDTDSFYGVVERPVDISLSPYPTDNEDYE", "note": "[A155V A155V]", "values": [
      {"measurement": "mutation enrichment score", "setting": "EZR_FERM_1_P15311_2_295; [8]", "value": 2},
      {"measurement": "mutation enrichment score", "setting": "MSN_FERM_1_P26038_1_322; [10]", "value": 6}
    ]},
    {"binder": "SKGFFSYRADIFVQNLVPDWWGPDGTFFGMFSIFFPSATGI", "note": "[R334W R334W]", "values": [
      {"measurement": "mutation enrichment score", "setting": "EPS15_EH__P42566_121_215; [6]", "value": 6},
      {"measurement": "mutation enrichment score", "setting": "SHC_PH__P29353_149_317", "value": 6}
    ]},
    {"binder": "MFNFETFGNSMICLFQITTSPGWDGLLAPILNSKPPDCDPN", "note": "[A1724P A1724P]", "values": [
      {"measurement": "mutation enrichment score", "setting": "EZR_FERM_1_P15311_2_295; [8]", "value": 3},
      {"measurement": "mutation enrichment score", "setting": "MSN_FERM_1_P26038_1_322; [10]", "value": 6},
      {"measurement": "mutation enrichment score", "setting": "[3]", "value": 1}
    ]},
    {"binder": "QEQAELDGTSGLAELDPEPTKPFQPIASVIIENEGKLEREK", "note": "[N255K N255K]", "values": [
      {"measurement": "mutation enrichment score", "setting": "EPS15_EH__P42566_121_215; number of wild-type / mutant comparisons summed (bounds the score): 18, paper call: diminished", "value": -8},
      {"measurement": "mutation enrichment score", "setting": "REPS1___Q96D71_226_314", "value": -4}
    ]},
    {"binder": "EMQKVDQHEWTKCNTTPTKIQEYTLTHLPQGAEYRFRVLAC", "note": "[R31017Q R31017Q]", "values": [
      {"measurement": "mutation enrichment score", "setting": "EZR_FERM_1_P15311_2_295; [5]", "value": 2},
      {"measurement": "mutation enrichment score", "setting": "MSN_FERM_1_P26038_1_322; [7]", "value": -5},
      {"measurement": "mutation enrichment score", "setting": "RDX_FERM_1_P35241_5_295; [7]", "value": -2}
    ]},
    {"binder": "KVIQAGMFDQKSSSHERRAFPQAILEHEEENEEEDEVPDDE", "note": "[L1217P L1217P]", "values": [
      {"measurement": "mutation enrichment score", "setting": "EPS15_EH__P42566_121_215; [6]", "value": -4}
    ]},
    {"binder": "MTIGPGEPASLGPTFTNTGACTLVIGLASTQAQSVPVINSM", "note": "[S432C S432C]", "values": [
      {"measurement": "mutation enrichment score", "setting": "[4]", "value": -4.6}
    ]},
    {"binder": "AGGAGGGGGGGSRAPPEELSVFQLPTLNFSPEQVASVCETL", "note": "[M79V M79V]", "values": [
      {"measurement": "mutation enrichment score", "setting": "EZR_FERM_1_P15311_2_295; [8]", "value": 4},
      {"measurement": "mutation enrichment score", "setting": "MSN_FERM_1_P26038_1_322; [10]", "value": 6},
      {"measurement": "mutation enrichment score", "setting": "RDX_FERM_1_P35241_5_295; [10]", "value": 6}
    ]},
    {"binder": "KELSGLGSALKNPFGNAGLLPGEAGKQLRRRAGLGSGLSLS", "note": "[L502P L502P]", "values": [
      {"measurement": "mutation enrichment score", "setting": "EPS15_EH__P42566_121_215; [6]", "value": 0}
    ]}
  ]
}
